According to PubChem BioAssay AID686978 (National Center for Advancing Translational Sciences (NCATS), 2013):
Among all 420,000 compounds or so, about 64,000 (15%) were called active. The inconclusive results got no clear call from the source; some entries with a clear call stand among them for comparison. The call rests on the fitted dose curve; in most records, active means well fitted inhibition curve with a large enough effect; inconclusive means small, poorly fitted or top-dose-only effect; inactive means flat fitted curve, though single readings scatter. Potencies of inconclusive entries are left out as doubtful fits.

test: qHTS for Inhibitors of human tyrosyl-DNA phosphodiesterase 1 (TDP1): qHTS in cells in absence of CPT; conditions: DT40 Tdp1-/- hTDP1 cells, no CPT, ATP luminescence, 48 h; activity change, negative = growth inhibition: at 46.2 µM (top of the series) unless noted; further: nearly all actives have a fitted effect of over 55% in size
In short: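 Chicken DT40 Tdp1-/- cells stably complemented with human TDP1 were seeded at 400 cells/well with DMSO in place of 20 nM camptothecin. After compound pinning, cells grew at least 48 hr at 37 °C; viability read by CellTiter-Glo luminescence.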
On the % scale 0 is the no-effect control and ±100 the full control effect; potency means the concentration at half of the fitted maximal effect; tags describe the fitted curve by direction and shape.

| Structure (SMILES) | Potency | activity change, negative = growth inhibition |
| --- | --- | --- |
| CCCCC1=CC2=C(c3ccco3)C(=O)C(C)(OC(=O)c3ccc(OC)cc3)C(=O)C2=CN1Cc1ccc2c(c1)OCO2 (stereo unspecified) | active: 13 µM | – |
| Cc1ccc([C@@H]2CC(=O)[C@@H]3CN(S(=O)(=O)c4ccc(C)cc4)[C@H](c4cccc(Cl)c4)C[C@@H]3N2S(=O)(=O)c2ccc(Cl)cc2)cc1 | inactive | – |
| Cc1ccc2cc(CCNC(=O)c3c(-c4ccccc4Cl)noc3C)c(=O)[nH]c2c1 | active: 18.4 µM | – |
| C=Cc1ccc(Cn2c(C(=O)O)c(CNCc3cc(OC)ccc3OC)c3ccc(C)cc32)cc1 | inconclusive [inhibitor, single point] | – |
| O=C(NCc1cccnc1)c1ccc(COc2ccc3c(c2)CCC3)o1 | inconclusive [inhibitor, single point] | – |
| Fc1cccc2ncnc(OCc3ccccc3)c12 | inactive | – |
| O=[N+]([O-])c1cccc(/C=N/Nc2cc(N3CCOCC3)ncn2)c1 | inconclusive [inhibitor, partial curve] | – |
| NC(=S)N/N=C/c1c(O)ccc2ccccc12 | inconclusive [inhibitor, single point] | – |
| O=C(Nc1cc2c3c(c1)CC(=O)N3CCC2)c1ccco1 | inactive | – |
| CCOc1ccccc1OCCCC(=O)N1CCN(S(=O)(=O)c2ccccc2C#N)CC1 | inconclusive [inhibitor, single point] | – |
| CC(O)CNc1nc(Cl)c(C#N)s1 (stereo unspecified) | inactive | – |
| CCCc1nc2c3ccccc3ccn2c1Cc1ccc(OC)cc1C | inconclusive [inhibitor, single point] | – |
| CC(NC(=O)c1ccc(C(C)(C)C)cc1)C(c1cccs1)N1CCOCC1 (stereo unspecified) | inconclusive [inhibitor, partial curve] | – |
| CCSc1nc2sc3c(c2c(=O)n1-c1ccccc1)CCN(C(C)C)C3 | active: 20.6 µM | – |
| COc1cccc(OCc2cc(C3Nc4ccccc4C(=O)N3Cc3ccccc3)ccc2OC)c1 (stereo unspecified) | inconclusive [inhibitor, partial curve] | – |
| CC(C(=O)NCC1CCCCC1)N1CCN(S(=O)(=O)/C=C/c2ccccc2)CC1 (stereo unspecified) | inconclusive [inhibitor, full curve, poor fit] | – |
| COc1ccc(C2c3cc(OC)c(OC)cc3Cc3c4cc(OC)c(OC)cc4cc[n+]32)cc1OC (stereo unspecified) | inconclusive [inhibitor, single point] | – |
| COc1ccc(-c2nc3c(C#N)c[nH]n3c2NC2CCCCC2)cc1 | active: 16.4 µM | – |
| Cc1ccc(-c2cc(-c3ccccc3)nc(Cl)n2)cc1 | – | inconclusive: -32.7% [inhibitor] |
| COc1nc(NC2CCCCC2)nc(N2CCCCCC2)n1 | active: 12.6 µM | – |
| COc1ccc(/C=C/C(=O)OCC(=O)N(C)CC(=O)Nc2ccc(C)cc2)c(OC)c1 | inconclusive [inhibitor, partial curve] | – |
| CCOC(=O)c1cc2c(ccn2C)n1CC(=O)N1CCC(Cc2ccccc2)CC1 | active: 17.8 µM | – |
| O=C(C1CC1)N(CCc1ccccc1)Cc1nc2ccccc2c(=O)[nH]1 | inactive | – |
| CC(C)N1CCCC(C)(C(=O)Nc2ccc3c(c2)OCO3)C1 (stereo unspecified) | inactive | – |

| Structure (SMILES) | Potency | activity change, negative = growth inhibition |
| --- | --- | --- |
| Cc1cc(C(=O)OCC(=O)Nc2nc(-c3ccccc3)cs2)c(C)o1 | inconclusive [inhibitor, single point] | – |
| CCCCc1c(O)c2cccc3c2n(c1=O)CCC3 | inactive | – |
| CCCc1cc(NCCCO)n2c(nc3ccccc32)c1C#N | inconclusive [inhibitor, single point] | – |
| O=C(Nc1ccccc1N1CCCC1)c1ccc([N+](=O)[O-])cc1Cl | inconclusive [inhibitor, single point] | – |
| COc1ccc(CCNC(=O)C(C)n2nc(C)c3sc4ccccc4c3c2=O)cc1OC (stereo unspecified) | active: 18.4 µM | – |
| COc1ccccc1CNc1ncnc2ccc(-c3ccccc3CN(C)C)cc12 | inconclusive [inhibitor, single point] | – |
| CC(=O)O[C@H]1CC(C)(C)C(=C=C/C(C)=C/C=C/C(C)=C/C=C/C=C(C)/C=C/C=C(\C)C(=O)C[C@@]23O[C@]2(C)C[C@@H](O)CC3(C)C)[C@](C)(O)C1 | inconclusive [inhibitor, single point] | – |
| Cc1ccccc1OCC(=O)NCC(c1ccco1)N1CCCCC1 (stereo unspecified) | inconclusive [inhibitor, partial curve, poor fit] | – |
| CCC(=O)c1ccc(OCc2ccccc2)c(OC)c1 | inconclusive [inhibitor, single point] | – |
| COc1ccc(C(=O)C(OP(=O)(OC)OC)c2ccccc2OC)cc1 (stereo unspecified) | inconclusive [inhibitor, single point] | – |
| N#C/C(=C(/O)c1ccc(-c2cccc([N+](=O)[O-])c2)o1)c1nc2ccccc2s1 | inactive | – |
| CCOc1ccc(N2CC(C(=O)N3CCN(c4ccccn4)CC3)CC2=O)cc1 (stereo unspecified) | inactive | – |
| OC(COCCOc1ccc(Br)cc1)CN1CCN(Cc2ccccc2)CC1 (stereo unspecified) | active: 23.1 µM | – |
| COc1cccc(N2CCN(C(=O)Cn3c(=O)oc4ccccc43)CC2)c1 | inactive | – |
| CC(=O)c1cccc(-c2ccnc3c2CC(C(=O)Nc2ccc(Cl)c(C(F)(F)F)c2)O3)c1 (stereo unspecified) | inconclusive [inhibitor, single point] | – |
| Cc1ccc2cccc(SCC(=O)N3CCOCC3)c2n1 | inactive | – |
| CCSc1nnc(C)c(=O)n1COC(=O)c1ccc(S(=O)(=O)N2CCCC2)cc1 | inconclusive [inhibitor, single point] | – |
| c1ccc(CN2CCC(=NNc3nc4ccccc4[nH]3)CC2)cc1 | inactive | – |
| COc1cc(C(C)=O)ccc1OCC(O)CN1CCN(c2cc(C)cc(C)c2)CC1 (stereo unspecified) | active: 16.4 µM | – |
| O=C1CC(C(F)(F)C(F)(F)C(F)(F)F)=Nc2ccccc2N1 | inactive | – |
| COc1ccc(S(=O)(=O)Nc2nc(C(F)(F)F)cs2)cc1 | inconclusive [inhibitor, partial curve, poor fit] | – |
| NC(=S)N/N=C/c1coc2ccc(Br)cc2c1=O | inconclusive [inhibitor, partial curve, poor fit] | – |
| COC(=O)C(CC(=O)c1ccc(Br)cc1)n1nc(C)cc1C (stereo unspecified) | inconclusive [inhibitor, single point] | – |
| COc1cc(C2Nc3ccc4ncccc4c3C3=C2C(=O)CCC3)ccc1O (stereo unspecified) | active: 3.66 µM | – |

| Structure (SMILES) | Potency | activity change, negative = growth inhibition |
| --- | --- | --- |
| O=C(/C=C/[C@H]1O[C@@H](n2ccc(=O)[nH]c2=O)[C@H](O)[C@@H]1O)NCc1ccco1 | inactive | – |
| c1ccc2c(CNc3ccc(CNc4ncn[nH]4)cc3)cccc2c1 | inconclusive [inhibitor, single point] | – |
| COC(=O)[C@H]1C[C@H](OC(=O)NCc2ccccc2)[C@@]2(O)CN(S(=O)(=O)c3ccc(C)cc3)CC2[C@H]1C(=O)OC (stereo partly specified) | inconclusive [inhibitor, single point] | – |
| CCOC(=O)c1cc(-c2ccccc2)sc1NC(=O)C(C)OC(=O)c1cccc(S(=O)(=O)N(C)C)c1 (stereo unspecified) | inconclusive [inhibitor, single point] | – |
| NC(=O)CC(NC(=O)Cc1ccc(Br)cc1)c1ccc(NCCOc2ccccc2)c([N+](=O)[O-])c1 (stereo unspecified) | inactive | – |
| CN(C(=O)COC(=O)CCc1c[nH]c2ccccc12)C(c1ccccc1)c1ccccc1 | inconclusive [inhibitor, partial curve] | – |
| Cc1cc(C)nc(-n2ncc3c2CC(c2ccccc2C)CC3=O)n1 (stereo unspecified) | inconclusive [inhibitor, single point] | – |
| COc1ccc(OC)c(N(C(=O)c2snc(C(N)=O)c2N)C(C(=O)NCc2ccccc2)c2ccc(O)cc2)c1 (stereo unspecified) | inconclusive [inhibitor, single point] | – |
| Cc1cc(C)c(NC(=O)CSc2nc(=O)n(Cc3ccncc3)c3c2CCC3)c(C)c1 | inactive | – |
| COc1ccccc1CCNc1ncnc2nc[nH]c12 | inconclusive [inhibitor, single point] | – |
| CCn1c(SCC(=O)NNC(=O)c2ccc(OC)cc2)nnc1C1CC1 | inactive | – |
| CC(O)(c1ccc(F)c(F)c1)c1nc(-c2ccc3ccccc3c2)cs1 (stereo unspecified) | inconclusive [inhibitor, single point] | – |
| Cc1c(C=Nc2ccc(S(=O)(=O)N(C)C)cc2)c(O)[nH]c(=O)c1C#N | inactive | – |
| COc1cccc(-c2ccc3ncnc(NC4CC4)c3c2)c1 | active: 11.6 µM | – |
| C[C@@H]1CCCCO[C@@H](CN(C)C(=O)CCC(F)(F)F)[C@@H](C)CN([C@H](C)CO)C(=O)c2cc(N(C)C)ccc2O1 | inactive | – |
| COc1ccccc1C(=O)NC1(C(F)(F)F)NC(=O)N(CCc2ccccc2)C1=O (stereo unspecified) | inactive | – |
| COc1cc(SC)ccc1C(=O)Nc1ccccn1 | inactive | – |
| O=C(NCCc1ccc(F)cc1)Nc1ccc2c(c1)OCO2 | inconclusive [inhibitor, single point] | – |
| O=C(CSc1nnc2scc(-c3ccc(Cl)cc3)n12)Nc1ccc(F)cc1 | inactive | – |
| Cc1ccc(Nc2c(-c3cccnc3)nc3ccc(C)cn23)cc1 | inconclusive [inhibitor, single point] | – |
| O=C1CCCCN1CCC(=O)N1CCOc2ccc(C(O)C3CCCCC3)cc2C1 (stereo unspecified) | inconclusive [inhibitor, single point] | – |
| O=C(COc1ccc(C2SCCS2)cc1)NNC(=O)C(Cl)Cl | inactive | – |
| NC(=O)c1ccc(N=Cc2ccc([N+](=O)[O-])s2)cc1 | active: 3.26 µM | – |
